# The other results are listed elsewhere or left out.
# B1: 25701804_25721325_3122_CDS_ENSMUSG00000036333_ENSMUST00000066652|mouse|control|control (ssRNA)
# RNA: GGGAGUUCUACAGUCCGACGAUCUGAUAUUCUCUCAUAGAUGGUCUUUAGCGUCAUCUGGUCAGGAAUACCUUCAGUCUCUCCCAGAUAUAGUAUGAGCCAGGACGUCCGGUAUGGCCACUGCUCAGUAAGGUUGAUCCAGCUCAACAGAGGAUUGAGCAUCA
# B2: chr14:66974463:66974464:+_ENSMUSG00000022044_ENSMUST00000074523|mus_hu|mus_mus_mus_hu_False|1_28 (ssRNA)
# RNA: GGGAGUUCUACAGUCCGACGAUCUUGUAGGACGACUUAUUCAGGGGAUCGGCCAGGAAGCAGGAGCAGAACAAGGACACCAGCGGGAGCUCCUUCAUCUUCUCUUUAUAGGCUGCAAGGGUCAUGUUUCUGGGAUCCUGGUGGCAACAGAGGAUUGAGCAUCA
# B3: chr11:18503389:18503390:-_ENSG00000074319_ENST00000251968|hu_hu|hu_hu_hu_mus_True|18_88 (ssRNA)
# RNA: GGGAGUUCUACAGUCCGACGAUCAUUUUCCAUUUUCUCCAGAGCAGAACUGAGUUCUUCAUCCUUCUUUUUCAAAAGUUCUAUGUUUUUAUCAACUUCAGCUACUUCUUGAUCUAAACGGGUAACCAUCUCUUCCAGUUUCUGCAACAGAGGAUUGAGCAUCA
# B4: chr7:6441565:6441566:+_ENSG00000136238_ENST00000348035|hu_mus|FALSE|FALSE (ssRNA)
# RNA: GGGAGUUCUACAGUCCGACGAUCGGUGAUGGGAGUCAGCUUCUUCUCCUUCAGCUUCUCAAUGGUGUCCUUAUCAUCCCUAAGAUCAAGCUUCGUCCCCACGAGGAUGAUAGGAGUAUUGGGACAGUGGUGUCGCACUUCAGGCAACAGAGGAUUGAGCAUCA
# B5: chr18:25532265:25532266:-_ENSG00000170558_ENST00000399380|hu_hu|motif|central (ssRNA)
# RNA: GGGAGUUCUACAGUCCGACGAUCGGAAUUAAGGGAGCUCAAGGACCCAGCAGUGGAGCCACUGCCUUCAUAGUCAAACACGGACAGGGAGUCAUAUGGUGGAGCUGUGGGGUCAUUGUCAGCCGCUUUAAGGCCCUCAUUAAUCAACAGAGGAUUGAGCAUCA
# B6: chr3:33945423:33945424:+_ENSMUSG00000027680_ENSMUST00000167354|mus_hu|FALSE|FALSE (ssRNA)
# RNA: GGGAGUUCUACAGUCCGACGAUCGGUAUUUUUUUUGACAGUUUUAUUUUGAUUGACAGGCCGAAGUCGUUCAAAUGUGACUAUUUCAUUGUAAGUAGCGUCACAAGCAGCAUAUUCAAUGACAUAAAAUUCUCCUUUCAUCAUCAACAGAGGAUUGAGCAUCA
# Molecular target: T1, UNK ZnF1-3 (human, UniProt Q9C0B0 31-174)
# T1 sequence: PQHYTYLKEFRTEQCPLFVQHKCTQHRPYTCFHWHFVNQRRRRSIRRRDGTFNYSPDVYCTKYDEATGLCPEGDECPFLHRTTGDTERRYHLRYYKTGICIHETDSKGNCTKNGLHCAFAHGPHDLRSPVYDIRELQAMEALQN
# Test: nsRBNS (natural sequence RNA bind-n-seq); RBNS binding buffer (assumed for nsRBNS): 25 mM Tris pH 7.5, 150 mM KCl, 3 mM MgCl2, 0.01% Triton X-100, 500 ug/ml BSA, 20 U/ml SUPERase-In, 4 C; UNK is unkempt and MSI1 is Musashi-1; names of the RNAs are library labels; protein concentration not given here; high values mean tight binding
row,Binder,binding signal
1,B1,0.786 enrichment R
2,B2,1.87 enrichment R
3,B3,0.56 enrichment R
4,B4,0.78 enrichment R
5,B5,1.08 enrichment R
6,B6,0.541 enrichment R
